Where a name gives a salt, the structure may show the parent alone.
Columns and labels:
[1] = set-up: method as in PMID 6111010; details: cited from earlier work
[2] = molecular target: CYP2C9 (Homo sapiens, UniProt P11712); experiment: Vivid CYP450 fluorescence-based inhibition assay, CYP2C9
[3] = molecular target: CYP3A5 (Homo sapiens, UniProt P20815); experiment: Vivid CYP450 fluorescence-based inhibition assay, CYP3A5; details: IC50 shift criterion >2
[4] = molecular target: T1, CYP2J2 (Homo sapiens, UniProt P51589); experiment: Vivid CYP450 fluorescence-based inhibition assay, CYP2J2
T1 sequence (P51589 1-502): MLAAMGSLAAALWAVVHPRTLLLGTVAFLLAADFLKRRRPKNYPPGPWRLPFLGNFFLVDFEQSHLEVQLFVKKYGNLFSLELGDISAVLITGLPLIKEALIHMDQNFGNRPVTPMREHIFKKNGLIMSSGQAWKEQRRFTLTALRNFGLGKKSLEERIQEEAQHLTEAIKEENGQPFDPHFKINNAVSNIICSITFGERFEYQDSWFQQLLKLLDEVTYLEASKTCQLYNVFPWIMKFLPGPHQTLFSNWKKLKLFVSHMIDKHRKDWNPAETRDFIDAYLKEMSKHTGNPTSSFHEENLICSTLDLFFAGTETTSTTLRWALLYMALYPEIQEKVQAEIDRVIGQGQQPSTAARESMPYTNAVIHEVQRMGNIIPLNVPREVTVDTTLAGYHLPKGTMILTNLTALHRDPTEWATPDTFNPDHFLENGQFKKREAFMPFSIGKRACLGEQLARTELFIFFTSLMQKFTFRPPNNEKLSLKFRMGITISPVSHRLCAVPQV

[5] = molecular target: CYP2E1 (Homo sapiens, UniProt P05181); experiment: Vivid CYP450 fluorescence-based inhibition assay, CYP2E1
UniProt P05181, sequence (P05181 whole entry): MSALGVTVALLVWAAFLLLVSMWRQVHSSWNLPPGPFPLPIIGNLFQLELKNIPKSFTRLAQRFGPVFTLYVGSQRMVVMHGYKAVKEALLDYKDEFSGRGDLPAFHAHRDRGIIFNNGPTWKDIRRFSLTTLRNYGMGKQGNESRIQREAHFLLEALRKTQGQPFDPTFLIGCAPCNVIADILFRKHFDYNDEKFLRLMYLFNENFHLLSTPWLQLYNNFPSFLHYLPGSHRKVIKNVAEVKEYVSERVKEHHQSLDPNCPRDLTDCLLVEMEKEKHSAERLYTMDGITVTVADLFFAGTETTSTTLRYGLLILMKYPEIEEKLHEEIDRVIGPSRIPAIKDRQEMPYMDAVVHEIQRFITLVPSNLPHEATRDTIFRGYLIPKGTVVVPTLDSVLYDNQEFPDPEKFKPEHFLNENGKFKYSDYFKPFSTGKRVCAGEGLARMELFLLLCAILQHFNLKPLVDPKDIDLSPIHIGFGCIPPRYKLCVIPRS

[6] = molecular target: T2, CYP1A2 (Homo sapiens, UniProt P05177); experiment: Vivid CYP450 fluorescence-based inhibition assay, CYP1A2; details: IC50 shift criterion >2
T2 sequence (P05177 2-516 limits assumed): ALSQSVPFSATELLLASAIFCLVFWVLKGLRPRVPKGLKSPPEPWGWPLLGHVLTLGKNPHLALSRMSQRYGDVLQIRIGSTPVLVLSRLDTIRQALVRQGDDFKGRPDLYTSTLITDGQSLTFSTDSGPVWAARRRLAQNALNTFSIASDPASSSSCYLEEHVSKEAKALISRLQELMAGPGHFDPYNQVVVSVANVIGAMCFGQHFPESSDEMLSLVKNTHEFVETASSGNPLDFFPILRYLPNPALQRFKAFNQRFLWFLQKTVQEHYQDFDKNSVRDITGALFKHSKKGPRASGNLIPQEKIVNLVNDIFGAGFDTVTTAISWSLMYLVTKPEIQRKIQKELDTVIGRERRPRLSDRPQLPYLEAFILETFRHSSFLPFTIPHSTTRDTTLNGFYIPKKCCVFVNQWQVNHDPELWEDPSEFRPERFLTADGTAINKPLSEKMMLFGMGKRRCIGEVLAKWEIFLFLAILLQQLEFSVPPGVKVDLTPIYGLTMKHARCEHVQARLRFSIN

[7] = molecular target: CYP3A4 (Homo sapiens, UniProt P08684); experiment: Vivid CYP450 fluorescence-based inhibition assay, CYP3A4
[8] = molecular target: T3, CYP2B6 (Homo sapiens, UniProt P20813); experiment: Vivid CYP450 fluorescence-based inhibition assay, CYP2B6
T3 sequence (P20813 1-491): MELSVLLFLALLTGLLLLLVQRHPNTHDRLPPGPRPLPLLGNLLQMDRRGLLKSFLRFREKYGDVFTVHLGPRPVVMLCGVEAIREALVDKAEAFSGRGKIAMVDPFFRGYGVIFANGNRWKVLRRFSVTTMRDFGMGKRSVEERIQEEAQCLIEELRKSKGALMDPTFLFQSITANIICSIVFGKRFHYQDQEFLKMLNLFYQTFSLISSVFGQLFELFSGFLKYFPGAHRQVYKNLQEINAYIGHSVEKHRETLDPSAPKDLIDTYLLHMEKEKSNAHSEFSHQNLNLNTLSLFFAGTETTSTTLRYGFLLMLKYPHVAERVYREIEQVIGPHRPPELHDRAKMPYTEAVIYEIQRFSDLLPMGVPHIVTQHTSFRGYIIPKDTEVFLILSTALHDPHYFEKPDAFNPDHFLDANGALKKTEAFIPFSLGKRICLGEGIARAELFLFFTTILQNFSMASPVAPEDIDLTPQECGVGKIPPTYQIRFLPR

[9] = molecular target: CYP2C19 (Homo sapiens, UniProt P33261); experiment: Vivid CYP450 fluorescence-based inhibition assay, CYP2C19
UniProt P33261, sequence (P33261 whole entry): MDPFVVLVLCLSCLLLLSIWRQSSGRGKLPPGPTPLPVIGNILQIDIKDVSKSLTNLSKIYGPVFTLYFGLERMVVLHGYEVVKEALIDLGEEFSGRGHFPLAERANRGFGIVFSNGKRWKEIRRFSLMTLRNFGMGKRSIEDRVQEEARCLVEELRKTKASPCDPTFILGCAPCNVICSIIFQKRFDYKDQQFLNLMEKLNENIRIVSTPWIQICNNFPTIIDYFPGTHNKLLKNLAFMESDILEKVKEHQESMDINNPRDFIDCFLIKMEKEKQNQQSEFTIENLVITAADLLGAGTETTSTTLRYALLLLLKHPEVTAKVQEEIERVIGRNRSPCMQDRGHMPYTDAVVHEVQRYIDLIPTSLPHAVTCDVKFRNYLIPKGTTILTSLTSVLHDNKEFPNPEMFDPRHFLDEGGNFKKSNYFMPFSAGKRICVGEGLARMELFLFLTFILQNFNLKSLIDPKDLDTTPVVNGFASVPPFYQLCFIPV

[10] = molecular target: T4, CYP2C8 (Homo sapiens, UniProt P10632); experiment: Vivid CYP450 fluorescence-based inhibition assay, CYP2C8
T4 sequence (P10632 1-490): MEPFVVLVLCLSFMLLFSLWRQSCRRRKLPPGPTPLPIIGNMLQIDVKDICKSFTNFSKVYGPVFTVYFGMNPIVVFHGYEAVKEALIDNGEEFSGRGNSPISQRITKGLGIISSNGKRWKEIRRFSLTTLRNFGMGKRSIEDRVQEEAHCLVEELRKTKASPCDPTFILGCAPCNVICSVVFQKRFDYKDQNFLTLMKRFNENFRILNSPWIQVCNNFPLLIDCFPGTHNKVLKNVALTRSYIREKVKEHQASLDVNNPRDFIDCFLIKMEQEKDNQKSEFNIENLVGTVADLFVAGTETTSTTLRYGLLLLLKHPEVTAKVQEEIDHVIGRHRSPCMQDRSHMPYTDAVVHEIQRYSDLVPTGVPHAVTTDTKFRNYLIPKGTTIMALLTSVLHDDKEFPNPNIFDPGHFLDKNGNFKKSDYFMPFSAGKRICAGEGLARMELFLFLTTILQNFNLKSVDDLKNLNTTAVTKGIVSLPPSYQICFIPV

[11] = molecular target: T5, CYP2A6 (Homo sapiens, UniProt P11509); experiment: Vivid CYP450 fluorescence-based inhibition assay, CYP2A6
T5 sequence (P11509 1-494): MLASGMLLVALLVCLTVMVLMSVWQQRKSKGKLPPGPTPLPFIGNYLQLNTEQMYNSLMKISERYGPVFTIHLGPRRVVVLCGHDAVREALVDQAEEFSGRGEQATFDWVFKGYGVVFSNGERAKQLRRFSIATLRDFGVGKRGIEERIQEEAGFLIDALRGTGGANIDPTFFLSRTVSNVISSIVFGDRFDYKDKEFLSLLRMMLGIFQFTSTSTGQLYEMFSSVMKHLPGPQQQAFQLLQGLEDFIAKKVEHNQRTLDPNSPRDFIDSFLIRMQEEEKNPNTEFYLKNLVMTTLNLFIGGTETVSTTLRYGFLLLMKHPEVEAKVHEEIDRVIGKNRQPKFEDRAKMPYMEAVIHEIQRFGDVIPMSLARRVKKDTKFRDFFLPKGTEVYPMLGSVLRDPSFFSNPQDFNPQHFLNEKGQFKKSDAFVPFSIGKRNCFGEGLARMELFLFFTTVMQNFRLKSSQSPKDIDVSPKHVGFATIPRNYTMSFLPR

[12] = molecular target: CYP2D6 (Homo sapiens, UniProt P10635); experiment: Vivid CYP450 fluorescence-based inhibition assay, CYP2D6; details: IC50 shift criterion >2
UniProt P10635, sequence (P10635 whole entry): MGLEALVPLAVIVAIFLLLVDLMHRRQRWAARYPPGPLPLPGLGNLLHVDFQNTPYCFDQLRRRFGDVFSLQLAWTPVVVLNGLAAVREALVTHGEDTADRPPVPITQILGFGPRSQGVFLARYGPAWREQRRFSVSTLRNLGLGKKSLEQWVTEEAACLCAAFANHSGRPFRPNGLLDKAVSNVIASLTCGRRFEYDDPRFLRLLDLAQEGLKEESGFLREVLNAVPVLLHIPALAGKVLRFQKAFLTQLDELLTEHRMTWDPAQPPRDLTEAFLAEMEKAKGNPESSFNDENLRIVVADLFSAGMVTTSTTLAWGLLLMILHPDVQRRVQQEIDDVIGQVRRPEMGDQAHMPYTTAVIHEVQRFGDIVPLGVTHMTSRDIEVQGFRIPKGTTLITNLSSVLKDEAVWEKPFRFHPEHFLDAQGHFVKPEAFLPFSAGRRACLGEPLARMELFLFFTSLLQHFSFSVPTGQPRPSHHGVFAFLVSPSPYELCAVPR

UniProt P11712, sequence (P11712 whole entry): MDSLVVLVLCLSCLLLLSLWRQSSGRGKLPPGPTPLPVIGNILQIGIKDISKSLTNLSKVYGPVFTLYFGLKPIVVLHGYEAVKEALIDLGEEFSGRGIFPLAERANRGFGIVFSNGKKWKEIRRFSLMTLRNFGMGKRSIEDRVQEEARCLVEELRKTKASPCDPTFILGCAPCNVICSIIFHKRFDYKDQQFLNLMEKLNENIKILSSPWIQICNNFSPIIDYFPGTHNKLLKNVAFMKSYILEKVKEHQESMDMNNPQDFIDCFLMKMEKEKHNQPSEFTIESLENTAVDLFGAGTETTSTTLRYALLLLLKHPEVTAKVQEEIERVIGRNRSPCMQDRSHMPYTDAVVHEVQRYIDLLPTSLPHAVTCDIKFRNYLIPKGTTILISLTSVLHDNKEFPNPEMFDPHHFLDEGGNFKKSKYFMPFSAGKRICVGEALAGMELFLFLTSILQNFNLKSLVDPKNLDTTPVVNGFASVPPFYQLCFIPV
UniProt P20815, sequence (P20815 whole entry): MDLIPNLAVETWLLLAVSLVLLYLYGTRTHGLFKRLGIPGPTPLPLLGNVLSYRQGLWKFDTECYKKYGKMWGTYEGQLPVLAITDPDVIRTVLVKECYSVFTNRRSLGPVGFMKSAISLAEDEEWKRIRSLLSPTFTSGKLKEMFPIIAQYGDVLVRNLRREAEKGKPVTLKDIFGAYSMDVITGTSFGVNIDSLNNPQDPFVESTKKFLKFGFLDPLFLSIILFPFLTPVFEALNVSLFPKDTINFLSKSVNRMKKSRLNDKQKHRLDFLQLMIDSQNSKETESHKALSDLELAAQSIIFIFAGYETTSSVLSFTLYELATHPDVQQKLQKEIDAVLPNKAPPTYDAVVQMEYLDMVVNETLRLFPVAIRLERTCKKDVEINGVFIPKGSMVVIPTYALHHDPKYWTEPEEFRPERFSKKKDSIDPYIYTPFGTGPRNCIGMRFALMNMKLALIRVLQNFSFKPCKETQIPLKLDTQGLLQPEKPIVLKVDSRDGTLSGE

## C[C@H](N)[C@@H](O)c1ccccc1 [Cathine, (1 S, 2 S)-2-amino-1-phenylpropan-1-ol.hydrochloride]
[1]
  times less potent than cathinone: 7-10 times
[2]
  IC50: > 100 µM
[2]; IC50 shift criterion >2
  time-dependent (mechanism-based) inhibition, in words: no time-dependent (mechanism-based) inhibition
[3]
  time-dependent (mechanism-based) inhibition, in words: no time-dependent (mechanism-based) inhibition
[4]
  IC50: > 100 µM
[4]; IC50 shift criterion >2
  time-dependent (mechanism-based) inhibition, in words: no time-dependent (mechanism-based) inhibition
[5]
  IC50: > 100 µM
[5]; IC50 shift criterion >2
  time-dependent (mechanism-based) inhibition, in words: no time-dependent (mechanism-based) inhibition
[6]
  time-dependent (mechanism-based) inhibition, in words: no time-dependent (mechanism-based) inhibition
[7]
  Ki: 100 µM
[7]; IC50 shift criterion >2
  time-dependent (mechanism-based) inhibition, in words: no time-dependent (mechanism-based) inhibition
[7]; Lineweaver-Burk plot
  mode of inhibition: non-competitive or mixed mode
[8]
  IC50: > 100 µM
[8]; IC50 shift criterion >2
  time-dependent (mechanism-based) inhibition, in words: no time-dependent (mechanism-based) inhibition
[9]
  IC50: > 100 µM
[9]; IC50 shift criterion >2
  time-dependent (mechanism-based) inhibition, in words: no time-dependent (mechanism-based) inhibition
[10]
  IC50: > 100 µM
[10]; IC50 shift criterion >2
  time-dependent (mechanism-based) inhibition, in words: no time-dependent (mechanism-based) inhibition
[11]
  Ki: 63 µM
[11]; IC50 shift criterion >2
  time-dependent (mechanism-based) inhibition, in words: no time-dependent (mechanism-based) inhibition
[11]; Lineweaver-Burk plot
  mode of inhibition: non-competitive or mixed mode
[12]
  time-dependent (mechanism-based) inhibition, in words: no time-dependent (mechanism-based) inhibition

From article PMC9411691, “Protein-Ligand Identification and In Vitro Inhibitory Effects of Cathine on 11 Major Human Drug Metabolizing Cytochrome P450s” (International Journal of Toxicology, 2022)
